{"source": "the supplement of paper PMC8728848", "assay_in_all_cases": "glycan array binding signal (z-score within array); higher = stronger binding", "details_in_all_cases": "glycan notation: IUPAC condensed, linker removed", "key": {"[1]": {"molecular_target": "Neu5Ac(a2-3)Gal(b1-3)GalNAc(b1-3)Gal(a1-4)Gal(b1-4)Glc", "how_it_was_run": "(§1)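 Glycan array data came from 3228 arrays in the Consortium for Functional Glycomics database, and only arrays with an available protein sequence were kept. Glycan names were put into IUPAC-condensed notation, and columns mapping to the same glycan were averaged. The binding signal is a within-array Z-score, averaged across arrays of one protein sequence run at different concentrations or buffers and across linkers. A negative Z-score can be read as non-binding.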"}, "[2]": {"molecular_target": "Neu5Ac(a2-3)Gal(b1-3)GalNAc(b1-4)[Neu5Ac(a2-3)]Gal(b1-4)Glc", "how_it_was_run": "as §1"}, "[3]": {"molecular_target": "Neu5Ac(a2-3)Gal(b1-3)GalNAc(b1-4)[Neu5Ac(a2-8)Neu5Ac(a2-3)]Gal(b1-4)Glc", "how_it_was_run": "as §1"}, "[4]": {"molecular_target": "Neu5Ac(a2-3)Gal(b1-3)GalNAc6S", "how_it_was_run": "as §1"}, "[5]": {"molecular_target": "Neu5Ac(a2-3)Gal(b1-3)GlcNAc", "how_it_was_run": "as §1"}, "[6]": {"molecular_target": "Neu5Ac(a2-3)Gal(b1-3)GlcNAc(b1-2)Man", "how_it_was_run": "as §1"}, "[7]": {"molecular_target": "Neu5Ac(a2-3)Gal(b1-3)GlcNAc(b1-2)Man(a1-3)[GlcNAc(b1-4)][Neu5Ac(a2-3)Gal(b1-3)GlcNAc(b1-2)Man(a1-6)]Man(b1-4)GlcNAc(b1-4)GlcNAc", "how_it_was_run": "as §1"}, "[8]": {"molecular_target": "Neu5Ac(a2-3)Gal(b1-3)GlcNAc(b1-2)Man(a1-3)[Neu5Ac(a2-3)Gal(b1-3)GlcNAc(b1-2)Man(a1-6)]Man(b1-4)GlcNAc(b1-4)GlcNAc", "how_it_was_run": "as §1"}, "[9]": {"molecular_target": "Neu5Ac(a2-3)Gal(b1-3)GlcNAc(b1-3)Gal(b1-3)GlcNAc", "how_it_was_run": "as §1"}, "[10]": {"molecular_target": "Neu5Ac(a2-3)Gal(b1-3)GlcNAc(b1-3)Gal(b1-4)GlcNAc", "how_it_was_run": "as §1"}, "[11]": {"molecular_target": "Neu5Ac(a2-3)Gal(b1-3)GlcNAc(b1-3)GalNAc", "how_it_was_run": "as §1"}, "[12]": {"molecular_target": "Neu5Ac(a2-3)Gal(b1-3)GlcNAc(b1-4)Gal(b1-4)Glc", "how_it_was_run": "as §1"}, "[13]": {"molecular_target": "Neu5Ac(a2-3)Gal(b1-3)GlcNAc(b1-6)GalNAc", "how_it_was_run": "as §1"}, "[14]": {"molecular_target": "Neu5Ac(a2-3)Gal(b1-3)GlcNAc6S", "how_it_was_run": "as §1"}, "[15]": {"molecular_target": "Neu5Ac(a2-3)Gal(b1-3)[Fuc(a1-4)]GlcNAc", "how_it_was_run": "as §1"}, "[16]": {"molecular_target": "Neu5Ac(a2-3)Gal(b1-3)[Fuc(a1-4)]GlcNAc(b1-3)Gal(b1-3)[Fuc(a1-4)]GlcNAc", "how_it_was_run": "as §1"}, "[17]": {"molecular_target": "Neu5Ac(a2-3)Gal(b1-3)[Fuc(a1-4)]GlcNAc(b1-3)Gal(b1-4)[Fuc(a1-3)]GlcNAc", "how_it_was_run": "as §1"}, "[18]": {"molecular_target": "Neu5Ac(a2-3)Gal(b1-3)[GlcNAc(b1-6)]GalNAc", "how_it_was_run": "as §1"}, "[19]": {"molecular_target": "Neu5Ac(a2-3)Gal(b1-3)[Neu5Ac(a2-6)]GalNAc", "how_it_was_run": "as §1"}, "[20]": {"molecular_target": "Neu5Ac(a2-3)Gal(b1-3)[Neu5Ac(a2-6)]GlcNAc(b1-3)[Fuc(a1-3)[Gal(b1-4)]GlcNAc(b1-6)]Gal(b1-4)Glc", "how_it_was_run": "as §1"}, "[21]": {"molecular_target": "Neu5Ac(a2-3)Gal(b1-3)]Neu5Ac(a2-3)Gal(b1-4)]GlcNAc", "how_it_was_run": "as §1"}, "[22]": {"molecular_target": "Neu5Ac(a2-3)Gal(b1-4)Glc", "how_it_was_run": "as §1"}, "[23]": {"molecular_target": "Neu5Ac(a2-3)Gal(b1-4)GlcNAc", "how_it_was_run": "as §1"}, "[24]": {"molecular_target": "Neu5Ac(a2-3)Gal(b1-4)GlcNAc(b1-2)Man", "how_it_was_run": "as §1"}, "[25]": {"molecular_target": "Neu5Ac(a2-3)Gal(b1-4)GlcNAc(b1-2)Man(a1-3)[GlcNAc(b1-4)][Neu5Ac(a2-3)Gal(b1-4)GlcNAc(b1-2)Man(a1-6)]Man(b1-4)GlcNAc(b1-4)GlcNAc", "how_it_was_run": "as §1"}, "[26]": {"molecular_target": "Neu5Ac(a2-3)Gal(b1-4)GlcNAc(b1-2)Man(a1-3)[Neu5Ac(a2-3)Gal(b1-4)GlcNAc(b1-2)Man(a1-6)]Man(b1-4)GlcNAc(b1-4)GlcNAc", "how_it_was_run": "as §1"}, "[27]": {"molecular_target": "Neu5Ac(a2-3)Gal(b1-4)GlcNAc(b1-2)Man(a1-3)[Neu5Ac(a2-3)Gal(b1-4)GlcNAc(b1-2)Man(a1-6)]Man(b1-4)GlcNAc(b1-4)[Fuc(a1-6)]GlcNAc", "how_it_was_run": "as §1"}, "[28]": {"molecular_target": "Neu5Ac(a2-3)Gal(b1-4)GlcNAc(b1-2)Man(a1-3)[Neu5Ac(a2-6)Gal(b1-4)GlcNAc(b1-2)Man(a1-6)]Man(b1-4)GlcNAc(b1-4)GlcNAc", "how_it_was_run": "as §1"}, "[29]": {"molecular_target": "Neu5Ac(a2-3)Gal(b1-4)GlcNAc(b1-2)[Neu5Ac(a2-3)Gal(b1-4)GlcNAc(b1-4)]Man(a1-3)[GlcNAc(b1-4)][Neu5Ac(a2-3)Gal(b1-4)GlcNAc(b1-2)[Neu5Ac(a2-3)Gal(b1-4)GlcNAc(b1-6)]Man(a1-6)]Man(b1-4)GlcNAc(b1-4)GlcNAc", "how_it_was_run": "as §1"}, "[30]": {"molecular_target": "Neu5Ac(a2-3)Gal(b1-4)GlcNAc(b1-2)[Neu5Ac(a2-3)Gal(b1-4)GlcNAc(b1-4)]Man(a1-3)[GlcNAc(b1-4)][Neu5Ac(a2-3)Gal(b1-4)GlcNAc(b1-4)Man(a1-6)]Man(b1-4)GlcNAc(b1-4)GlcNAc", "how_it_was_run": "as §1"}, "[31]": {"molecular_target": "Neu5Ac(a2-3)Gal(b1-4)GlcNAc(b1-2)[Neu5Ac(a2-3)Gal(b1-4)GlcNAc(b1-6)]Man(a1-6)[Neu5Ac(a2-3)Gal(b1-4)GlcNAc(b1-2)Man(a1-3)]Man(b1-4)GlcNAc(b1-4)GlcNAc", "how_it_was_run": "as §1"}, "[32]": {"molecular_target": "Neu5Ac(a2-3)Gal(b1-4)GlcNAc(b1-2)[Neu5Ac(a2-3)Gal(b1-4)GlcNAc(b1-6)]Man(a1-6)[Neu5Ac(a2-3)Gal(b1-4)GlcNAc(b1-2)Man(a1-3)][GlcNAc(b1-4)]Man(b1-4)GlcNAc(b1-4)GlcNAc", "how_it_was_run": "as §1"}, "[33]": {"molecular_target": "Neu5Ac(a2-3)Gal(b1-4)GlcNAc(b1-3)Gal", "how_it_was_run": "as §1"}, "[34]": {"molecular_target": "Neu5Ac(a2-3)Gal(b1-4)GlcNAc(b1-3)Gal(b1-3)GlcNAc", "how_it_was_run": "as §1"}, "[35]": {"molecular_target": "Neu5Ac(a2-3)Gal(b1-4)GlcNAc(b1-3)Gal(b1-4)GlcNAc", "how_it_was_run": "as §1"}, "[36]": {"molecular_target": "Neu5Ac(a2-3)Gal(b1-4)GlcNAc(b1-3)Gal(b1-4)GlcNAc(b1-2)Man(a1-3)[Neu5Ac(a2-3)Gal(b1-4)GlcNAc(b1-3)Gal(b1-4)GlcNAc(b1-2)Man(a1-6)]Man(b1-4)GlcNAc(b1-4)GlcNAc", "how_it_was_run": "as §1"}, "[37]": {"molecular_target": "Neu5Ac(a2-3)Gal(b1-4)GlcNAc(b1-3)Gal(b1-4)GlcNAc(b1-3)Gal(b1-4)GlcNAc", "how_it_was_run": "as §1"}}, "note": "Some of the results follow."}
{"binder": "CPA (Cicer arietinum) (protein) MAFSYLNLVLVTLTTLFFLQTTKVKSQKSVSFHITNFTISRPSITLQGTAEFLPNVLLLNDIEHPVFVVGRALYSKPITLWNNKTGKVASFVTSFTFDVQDLKKTVPGHGLVFFLAPSGSEIPFSSDGGNLGVVDGKNAFNRFVGVEFDNFVNSWDPKYSHVGINVNSLISTKTVKWNRVSGELVKVSIVYDSVSTTLTVIVTYKNGQISILSQLVDLKAVLPDTVNIGFSASTTLVSPRQLHNIHSWSFTSTFET", "values": [{"measurement": "glycan array binding signal (z-score)", "setting": "[1]", "value": -0.601}, {"measurement": "glycan array binding signal (z-score)", "setting": "[2]", "value": -0.141}, {"measurement": "glycan array binding signal (z-score)", "setting": "[3]", "value": -0.373}, {"measurement": "glycan array binding signal (z-score)", "setting": "[4]", "value": -0.443}, {"measurement": "glycan array binding signal (z-score)", "setting": "[5]", "value": -0.269}, {"measurement": "glycan array binding signal (z-score)", "setting": "[6]", "value": 0.385}, {"measurement": "glycan array binding signal (z-score)", "setting": "[7]", "value": -0.065}, {"measurement": "glycan array binding signal (z-score)", "setting": "[8]", "value": 0.226}, {"measurement": "glycan array binding signal (z-score)", "setting": "[9]", "value": -0.603}, {"measurement": "glycan array binding signal (z-score)", "setting": "[10]", "value": -0.518}, {"measurement": "glycan array binding signal (z-score)", "setting": "[11]", "value": -0.614}, {"measurement": "glycan array binding signal (z-score)", "setting": "[12]", "value": -0.4}, {"measurement": "glycan array binding signal (z-score)", "setting": "[13]", "value": -0.278}, {"measurement": "glycan array binding signal (z-score)", "setting": "[14]", "value": 0.504}, {"measurement": "glycan array binding signal (z-score)", "setting": "[15]", "value": -0.315}, {"measurement": "glycan array binding signal (z-score)", "setting": "[16]", "value": -0.435}, {"measurement": "glycan array binding signal (z-score)", "setting": "[17]", "value": 0.512}, {"measurement": "glycan array binding signal (z-score)", "setting": "[18]", "value": -0.349}, {"measurement": "glycan array binding signal (z-score)", "setting": "[19]", "value": -0.285}, {"measurement": "glycan array binding signal (z-score)", "setting": "[20]", "value": -0.457}, {"measurement": "glycan array binding signal (z-score)", "setting": "[21]", "value": -0.652}, {"measurement": "glycan array binding signal (z-score)", "setting": "[22]", "value": -0.168}, {"measurement": "glycan array binding signal (z-score)", "setting": "[23]", "value": -0.292}, {"measurement": "glycan array binding signal (z-score)", "setting": "[24]", "value": 0.675}, {"measurement": "glycan array binding signal (z-score)", "setting": "[25]", "value": -0.279}, {"measurement": "glycan array binding signal (z-score)", "setting": "[26]", "value": -0.242}, {"measurement": "glycan array binding signal (z-score)", "setting": "[27]", "value": -0.513}, {"measurement": "glycan array binding signal (z-score)", "setting": "[28]", "value": -0.434}, {"measurement": "glycan array binding signal (z-score)", "setting": "[29]", "value": -0.268}, {"measurement": "glycan array binding signal (z-score)", "setting": "[30]", "value": -0.568}, {"measurement": "glycan array binding signal (z-score)", "setting": "[31]", "value": 0.425}, {"measurement": "glycan array binding signal (z-score)", "setting": "[32]", "value": -0.636}, {"measurement": "glycan array binding signal (z-score)", "setting": "[33]", "value": -0.66}, {"measurement": "glycan array binding signal (z-score)", "setting": "[34]", "value": -0.633}, {"measurement": "glycan array binding signal (z-score)", "setting": "[35]", "value": -0.763}, {"measurement": "glycan array binding signal (z-score)", "setting": "[36]", "value": 2.85}, {"measurement": "glycan array binding signal (z-score)", "setting": "[37]", "value": -0.587}]}
